# Results reported in the supplement of paper PMC8728848.
# The list shows a part of the results.
# Tests used:
# Experiment in all cases: glycan array binding signal (z-score within array); higher = stronger binding
# Details in all cases: glycan notation: IUPAC condensed, linker removed
# [1] = target: Fuc(a1-2)[Gal(a1-3)]Gal(b1-4)Glc
# Summary of the method: (§1)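 The binding signal is a Z-score computed within each array. Data were drawn from 3228 arrays in the Consortium for Functional Glycomics database, restricted to those with a known protein sequence. Scores were averaged over arrays of the same protein sequence at different concentrations or buffers, and over linkers, and negative values can be taken as non-binding.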
# [2] = target: Fuc(a1-2)[Gal(a1-3)]Gal(b1-4)GlcNAc
# Summary of the method: as §1
# [3] = target: Fuc(a1-2)[Gal(a1-3)]Gal(b1-4)GlcNAc(b1-2)Man(a1-3)[Fuc(a1-2)[Gal(a1-3)]Gal(b1-4)GlcNAc(b1-2)Man(a1-6)]Man(b1-4)GlcNAc(b1-4)GlcNAc
# Summary of the method: as §1
# [4] = target: Fuc(a1-2)[Gal(a1-3)]Gal(b1-4)GlcNAc(b1-2)Man(a1-3)[Fuc(a1-2)[Gal(a1-3)]Gal(b1-4)GlcNAc(b1-2)Man(a1-6)]Man(b1-4)GlcNAc(b1-4)[Fuc(a1-6)]GlcNAc
# Summary of the method: as §1
# [5] = target: Fuc(a1-2)[Gal(a1-3)]Gal(b1-4)GlcNAc(b1-3)GalNAc
# Summary of the method: as §1
# [6] = target: Fuc(a1-2)[Gal(a1-3)]Gal(b1-4)[Fuc(a1-3)]Glc
# Summary of the method: as §1
# [7] = target: Fuc(a1-2)[Gal(a1-3)]Gal(b1-4)[Fuc(a1-3)]GlcNAc
# Summary of the method: as §1
# [8] = target: Fuc(a1-2)[Gal(a1-3)]Gal(b1-4)[Fuc(a1-3)]GlcNAc(b1-3)GalNAc
# Summary of the method: as §1
# [9] = target: Fuc(a1-2)[Gal(a1-4)]Gal(b1-4)GlcNAc
# Summary of the method: as §1
# [10] = target: Fuc(a1-2)[GalNAc(a1-3)]Gal
# Summary of the method: as §1
# [11] = target: Fuc(a1-2)[GalNAc(a1-3)]Gal(b1-3)GalNAc(a1-3)[Fuc(a1-2)]Gal(b1-4)GlcNAc
# Summary of the method: as §1
# [12] = target: Fuc(a1-2)[GalNAc(a1-3)]Gal(b1-3)GlcNAc
# Summary of the method: as §1
# [13] = target: Fuc(a1-2)[GalNAc(a1-3)]Gal(b1-3)GlcNAc(b1-2)Man(a1-3)[Fuc(a1-2)[GalNAc(a1-3)]Gal(b1-3)GlcNAc(b1-2)Man(a1-6)]Man(b1-4)GlcNAc(b1-4)GlcNAc
# Summary of the method: as §1
# [14] = target: Fuc(a1-2)[GalNAc(a1-3)]Gal(b1-3)GlcNAc(b1-2)Man(a1-3)[Fuc(a1-2)[GalNAc(a1-3)]Gal(b1-3)GlcNAc(b1-2)Man(a1-6)]Man(b1-4)GlcNAc(b1-4)[Fuc(a1-6)]GlcNAc
# Summary of the method: as §1
# [15] = target: Fuc(a1-2)[GalNAc(a1-3)]Gal(b1-3)GlcNAc(b1-3)GalNAc
# Summary of the method: as §1
# [16] = target: Fuc(a1-2)[GalNAc(a1-3)]Gal(b1-4)Glc
# Summary of the method: as §1
# [17] = target: Fuc(a1-2)[GalNAc(a1-3)]Gal(b1-4)GlcNAc
# Summary of the method: as §1
# [18] = target: Fuc(a1-2)[GalNAc(a1-3)]Gal(b1-4)GlcNAc(b1-2)Man(a1-3)[Fuc(a1-2)[GalNAc(a1-3)]Gal(b1-4)GlcNAc(b1-2)Man(a1-6)]Man(b1-4)GlcNAc(b1-4)GlcNAc
# Summary of the method: as §1
# [19] = target: Fuc(a1-2)[GalNAc(a1-3)]Gal(b1-4)GlcNAc(b1-2)Man(a1-3)[Fuc(a1-2)[GalNAc(a1-3)]Gal(b1-4)GlcNAc(b1-2)Man(a1-6)]Man(b1-4)GlcNAc(b1-4)[Fuc(a1-6)]GlcNAc
# Summary of the method: as §1
# [20] = target: Fuc(a1-2)[GalNAc(a1-3)]Gal(b1-4)GlcNAc(b1-3)Gal(b1-4)GlcNAc
# Summary of the method: as §1
# [21] = target: Fuc(a1-2)[GalNAc(a1-3)]Gal(b1-4)GlcNAc(b1-3)Gal(b1-4)GlcNAc(b1-3)Gal(b1-4)GlcNAc
# Summary of the method: as §1
# [22] = target: Fuc(a1-2)[GalNAc(a1-3)]Gal(b1-4)GlcNAc(b1-3)GalNAc
# Summary of the method: as §1
# [23] = target: Fuc(a1-2)[GalNAc(a1-3)]Gal(b1-4)[Fuc(a1-3)]GlcNAc
# Summary of the method: as §1
# [24] = target: Fuc(a1-2)[GalNAc(a1-3)]Gal(b1-4)[Fuc(a1-3)]GlcNAc(b1-3)GalNAc
# Summary of the method: as §1
# [25] = target: Fuc(a1-2)[GalNAc(a1-4)]Gal(b1-4)GlcNAc
# Summary of the method: as §1
# [26] = target: Fuc(a1-2)[GalNAc(b1-3)]Gal
# Summary of the method: as §1
# [27] = target: Fuc(a1-3)GlcNAc
# Summary of the method: as §1
# [28] = target: Fuc(a1-3)[Gal(b1-4)]Glc6S
# Summary of the method: as §1
# [29] = target: Fuc(a1-3)[Gal(b1-4)]GlcNAc
# Summary of the method: as §1
# [30] = target: Fuc(a1-3)[Gal(b1-4)]GlcNAc(b1-2)Man(a1-3)[Fuc(a1-3)[Gal(b1-4)]GlcNAc(b1-2)Man(a1-6)]Man(b1-4)GlcNAc(b1-4)GlcNAc
# Summary of the method: as §1
# [31] = target: Fuc(a1-3)[Gal(b1-4)]GlcNAc(b1-2)Man(a1-3)[Fuc(a1-3)[Gal(b1-4)]GlcNAc(b1-2)Man(a1-6)]Man(b1-4)GlcNAc(b1-4)[Fuc(a1-6)]GlcNAc
# Summary of the method: as §1
# [32] = target: Fuc(a1-3)[Gal(b1-4)]GlcNAc(b1-3)Gal(b1-3)[Fuc(a1-4)]GlcNAc
# Summary of the method: as §1
# [33] = target: Fuc(a1-3)[Gal(b1-4)]GlcNAc(b1-3)GalNAc
# Summary of the method: as §1
# [34] = target: Fuc(a1-3)[Gal(b1-4)]GlcNAc(b1-4)Gal(b1-4)[Fuc(a1-3)]GlcNAc
# Summary of the method: as §1
# [35] = target: Fuc(a1-3)[Gal(b1-4)]GlcNAc(b1-4)Gal(b1-4)[Fuc(a1-3)]GlcNAc(b1-4)Gal(b1-4)[Fuc(a1-3)]GlcNAc
# Summary of the method: as §1
# [36] = target: Fuc(a1-3)[Gal(b1-4)]GlcNAc(b1-6)GalNAc
# Summary of the method: as §1
# [37] = target: Fuc(a1-3)[Gal(b1-4)]GlcNAc(b1-6)[Gal(b1-3)GlcNAc(b1-3)]Gal(b1-4)Glc
# Summary of the method: as §1
# [38] = target: Fuc(a1-3)[Gal(b1-4)]GlcNAc(b1-6)[Neu5Ac(a2-3)Gal(b1-3)]GalNAc
# Summary of the method: as §1
# [39] = target: Fuc(a1-3)[Gal(b1-4)]GlcNAc6S
# Summary of the method: as §1
# [40] = target: Fuc(a1-3)[Gal3S(b1-4)]GlcNAc
# Summary of the method: as §1
# [41] = target: Fuc(a1-3)[Gal3S(b1-4)]GlcNAc6S
# Summary of the method: as §1
# [42] = target: Fuc(a1-3)[GalNAc(b1-4)]GlcNAc
# Summary of the method: as §1
# [43] = target: Fuc(a1-4)GlcNAc
# Summary of the method: as §1
# [44] = target: Fuc(b1-3)GlcNAc
# Summary of the method: as §1
# [45] = target: Gal(a1-2)Gal
# Summary of the method: as §1
binder,measurement,setting,value
"3FTT (Staphylococcus aureus), Q5HCZ5 (protein) MTEKEKMLAEKWYDANFDQYLINERARAKDICFELNHTRPSATNKRKELIDQLFQTTTDNVSISIPFDTDYGWNVKLGKNVYVNTNCYFMDGGQITIGDNVFIGPNCGFYTATHPLNFHHRNEGFEKAGPIHIGSNTWFGGHVAVLPGVTIGEGSVIGAGSVVTKDIPPHSLAVGNPCKVVRKIDNDLPSETLNDETIK",glycan array binding signal (z-score),[1],-0.286
same,glycan array binding signal (z-score),[2],-0.003
same,glycan array binding signal (z-score),[3],-0.112
same,glycan array binding signal (z-score),[4],0.105
same,glycan array binding signal (z-score),[5],-0.06
same,glycan array binding signal (z-score),[6],-0.224
same,glycan array binding signal (z-score),[7],-0.178
same,glycan array binding signal (z-score),[8],0.139
same,glycan array binding signal (z-score),[9],-0.111
same,glycan array binding signal (z-score),[10],-0.204
same,glycan array binding signal (z-score),[11],-0.397
same,glycan array binding signal (z-score),[12],-0.204
same,glycan array binding signal (z-score),[13],0.032
same,glycan array binding signal (z-score),[14],0.227
same,glycan array binding signal (z-score),[15],0.255
same,glycan array binding signal (z-score),[16],-0.111
same,glycan array binding signal (z-score),[17],-0.197
same,glycan array binding signal (z-score),[18],-0.105
same,glycan array binding signal (z-score),[19],-0.028
same,glycan array binding signal (z-score),[20],-0.09
same,glycan array binding signal (z-score),[21],0.147
same,glycan array binding signal (z-score),[22],-0.098
same,glycan array binding signal (z-score),[23],0.307
same,glycan array binding signal (z-score),[24],0.044
same,glycan array binding signal (z-score),[25],-0.204
same,glycan array binding signal (z-score),[26],0.173
same,glycan array binding signal (z-score),[27],-0.029
same,glycan array binding signal (z-score),[28],-0.183
same,glycan array binding signal (z-score),[29],-0.033
same,glycan array binding signal (z-score),[30],-0.062
same,glycan array binding signal (z-score),[31],0.132
same,glycan array binding signal (z-score),[32],-0.197
same,glycan array binding signal (z-score),[33],0.04
same,glycan array binding signal (z-score),[34],-0.153
same,glycan array binding signal (z-score),[35],-0.017
same,glycan array binding signal (z-score),[36],0.714
same,glycan array binding signal (z-score),[37],-0.271
same,glycan array binding signal (z-score),[38],-0.148
same,glycan array binding signal (z-score),[39],-0.031
same,glycan array binding signal (z-score),[40],-0.152
same,glycan array binding signal (z-score),[41],-0.029
same,glycan array binding signal (z-score),[42],-0.004
same,glycan array binding signal (z-score),[43],-0.229
same,glycan array binding signal (z-score),[44],-0.015
same,glycan array binding signal (z-score),[45],-0.132
